Measured values: paper doi:10.1101/2024.11.04.621988
Results are given in words; binding and its absence hold for the method and conditions named. For some assays here: In cells and extracts the contact can be indirect. Some entries that bind do so weakly or less than the wild type. For some assays here: Sequences can lack the tags named with a protein.

Amino acid sequences for entries named in this document (tags omitted).
UniProt P43583: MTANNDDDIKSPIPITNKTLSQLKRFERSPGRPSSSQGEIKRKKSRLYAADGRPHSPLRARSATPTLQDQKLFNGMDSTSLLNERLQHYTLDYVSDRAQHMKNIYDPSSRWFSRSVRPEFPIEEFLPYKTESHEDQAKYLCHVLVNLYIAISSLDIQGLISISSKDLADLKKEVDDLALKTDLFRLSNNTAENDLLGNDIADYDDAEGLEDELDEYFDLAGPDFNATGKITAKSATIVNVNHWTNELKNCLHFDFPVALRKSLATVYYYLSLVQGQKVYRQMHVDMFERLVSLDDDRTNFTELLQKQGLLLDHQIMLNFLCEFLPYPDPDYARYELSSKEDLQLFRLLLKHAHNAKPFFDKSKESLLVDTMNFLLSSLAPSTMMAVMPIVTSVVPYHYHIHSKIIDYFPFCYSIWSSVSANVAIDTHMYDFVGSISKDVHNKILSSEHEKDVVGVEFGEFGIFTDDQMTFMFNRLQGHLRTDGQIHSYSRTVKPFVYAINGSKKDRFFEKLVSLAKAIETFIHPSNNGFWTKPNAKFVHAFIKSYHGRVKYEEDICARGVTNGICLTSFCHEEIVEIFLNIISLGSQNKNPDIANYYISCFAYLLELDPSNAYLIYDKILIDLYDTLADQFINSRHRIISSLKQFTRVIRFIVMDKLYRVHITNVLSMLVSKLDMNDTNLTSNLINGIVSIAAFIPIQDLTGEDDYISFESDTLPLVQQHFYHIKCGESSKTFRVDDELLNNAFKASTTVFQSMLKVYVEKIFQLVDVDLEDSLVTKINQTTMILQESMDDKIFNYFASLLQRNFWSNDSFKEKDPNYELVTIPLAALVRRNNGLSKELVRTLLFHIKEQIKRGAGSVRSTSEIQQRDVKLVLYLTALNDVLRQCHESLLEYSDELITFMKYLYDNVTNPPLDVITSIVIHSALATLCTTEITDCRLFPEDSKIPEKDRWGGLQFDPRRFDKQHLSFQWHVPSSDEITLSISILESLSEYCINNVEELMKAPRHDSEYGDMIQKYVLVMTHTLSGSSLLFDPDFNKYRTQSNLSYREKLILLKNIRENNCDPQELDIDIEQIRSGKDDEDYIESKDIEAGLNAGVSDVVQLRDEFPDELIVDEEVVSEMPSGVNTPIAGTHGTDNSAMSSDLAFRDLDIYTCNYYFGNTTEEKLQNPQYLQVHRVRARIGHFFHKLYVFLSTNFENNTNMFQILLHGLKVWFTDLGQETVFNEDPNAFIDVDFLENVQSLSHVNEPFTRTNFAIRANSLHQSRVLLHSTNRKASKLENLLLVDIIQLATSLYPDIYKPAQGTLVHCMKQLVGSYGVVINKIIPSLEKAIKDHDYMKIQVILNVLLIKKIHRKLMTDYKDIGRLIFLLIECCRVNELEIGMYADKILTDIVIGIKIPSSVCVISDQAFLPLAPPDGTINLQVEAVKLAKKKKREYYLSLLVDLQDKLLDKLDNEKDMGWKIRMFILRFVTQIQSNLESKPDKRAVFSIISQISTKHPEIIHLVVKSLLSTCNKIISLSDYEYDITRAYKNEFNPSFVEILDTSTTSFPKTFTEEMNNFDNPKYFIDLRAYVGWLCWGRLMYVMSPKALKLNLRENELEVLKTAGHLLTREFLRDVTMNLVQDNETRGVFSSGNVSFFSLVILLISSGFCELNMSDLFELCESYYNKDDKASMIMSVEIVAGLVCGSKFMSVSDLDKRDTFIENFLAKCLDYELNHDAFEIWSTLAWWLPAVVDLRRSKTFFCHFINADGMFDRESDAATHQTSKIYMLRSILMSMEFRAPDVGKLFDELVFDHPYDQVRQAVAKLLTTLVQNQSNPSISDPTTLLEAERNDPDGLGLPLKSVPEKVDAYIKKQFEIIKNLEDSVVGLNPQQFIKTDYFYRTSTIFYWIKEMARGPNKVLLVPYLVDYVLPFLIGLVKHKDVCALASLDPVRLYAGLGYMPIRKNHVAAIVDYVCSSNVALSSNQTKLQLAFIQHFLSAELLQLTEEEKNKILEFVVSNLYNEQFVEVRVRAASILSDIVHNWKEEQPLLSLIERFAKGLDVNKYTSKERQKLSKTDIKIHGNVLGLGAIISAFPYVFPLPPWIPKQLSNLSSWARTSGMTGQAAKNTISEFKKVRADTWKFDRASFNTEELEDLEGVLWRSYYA

T1: Pba4-TAP (yeast) (UniProt Q12245)
T1 sequence: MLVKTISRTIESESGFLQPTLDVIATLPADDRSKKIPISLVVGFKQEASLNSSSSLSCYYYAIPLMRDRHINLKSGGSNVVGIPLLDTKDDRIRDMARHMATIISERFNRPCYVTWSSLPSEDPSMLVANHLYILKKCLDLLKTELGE

T2: proteasome core particle subunit α5 (yeast (endogenous in the yeast strain)) (UniProt P32379)
T2 sequence: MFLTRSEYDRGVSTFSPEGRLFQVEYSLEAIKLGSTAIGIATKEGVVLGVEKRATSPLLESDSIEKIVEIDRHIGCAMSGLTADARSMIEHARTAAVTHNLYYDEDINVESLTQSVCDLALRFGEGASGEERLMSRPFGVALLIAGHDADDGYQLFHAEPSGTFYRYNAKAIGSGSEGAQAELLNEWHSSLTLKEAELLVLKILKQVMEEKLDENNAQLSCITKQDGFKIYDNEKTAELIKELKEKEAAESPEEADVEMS

T3: proteasome core particle subunit α3 (yeast (endogenous in the yeast strain)) (UniProt P23638)
T3 sequence: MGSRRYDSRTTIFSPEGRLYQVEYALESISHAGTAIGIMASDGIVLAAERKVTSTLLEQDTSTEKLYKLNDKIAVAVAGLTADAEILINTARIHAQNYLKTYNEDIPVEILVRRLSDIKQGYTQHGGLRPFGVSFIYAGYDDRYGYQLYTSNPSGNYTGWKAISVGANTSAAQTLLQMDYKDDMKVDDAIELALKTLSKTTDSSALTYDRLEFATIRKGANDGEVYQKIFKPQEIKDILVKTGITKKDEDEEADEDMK

T4: Ump1 (C-terminally TAP-tagged, after TEV cleavage, CBP part kept) (yeast) (UniProt P38293)
T4 sequence: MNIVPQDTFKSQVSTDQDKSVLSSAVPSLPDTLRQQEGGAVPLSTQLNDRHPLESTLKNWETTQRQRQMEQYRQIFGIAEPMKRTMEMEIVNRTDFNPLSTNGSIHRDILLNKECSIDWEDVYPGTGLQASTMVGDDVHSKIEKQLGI


Legend:
Pba4-TAP (yeast) = biological target: T1, Pba4-TAP (yeast); test: pull-down; TAP-tagged bait (Ump1-TAP or Pba4-TAP) captured from yeast lysate on calmodulin resin, 1 h at 4 °C, 50 mM Tris-HCl pH 7.5, 5 mM MgCl2, 1 mM ATP, 2 mM CaCl2; washes with 50 mM NaCl; SDS-PAGE and immunoblot; some strains with Blm10 overexpressed
[1] = biological target: T2, proteasome core particle subunit α5 (yeast (endogenous in the yeast strain)); test: cryo-EM structure; assembly intermediates formed in a pba1Δ yeast strain and purified as complexes through Ump1-TAP (IgG beads, TEV, calmodulin resin, EGTA elution); 1.8 or 0.9 mg/mL vitrified; five complexes sorted from one data set
[2] = biological target: T3, proteasome core particle subunit α3 (yeast (endogenous in the yeast strain)); test: as above
[3] = biological target: T4, Ump1 (C-terminally TAP-tagged, after TEV cleavage, CBP part kept) (yeast); test: as above

binding (Pba4-TAP (yeast))	binding [1]	binding [2]	binding [3]	Molecule
binds	binds	binds	no binding	Blm10 (from UniProt P43583 1-2143)
binds	–	–	–	Pba1/Pba2 (complex, UniProt Q05778 1-276; P36040 1-267) chain 1: MLFKQWNDLPEPKHLLDLPEISKNLQSLEVCPVPKVEFPQDLDVPQYSTAVITTKIMNPLFPKNLLQLTSIGEIKTTLTVKSPSLPQSSGKHSWNYDENFPNEVDPDQKNDTADETVYGFSFPIYSFGKTLLFSMEENFISISPIFGNMISRSIISQLAQFSPDIIVIGTSDKIASMKVMTENECTLQPPEFITGFIGSVLTQLIVGPSKGLKFKCLVAPSEGPNGFEKLSLSDMGSLVDLCGQWLGFEPSRYSEECYRLWRCDSAAIGAQSGLYI chain 2: MSCLVLPLVSVGNIPQLSIDWLLNSQANEWEYLEALDSKYLVEFVGPLDRPEDGSDSLYKDADMKYSSALEVFYNKKRGLFAIQQRTPLVSVNYLNNFIVEIILPFLSKYNISEICIWDSLYAMEDENGVIVRPQEVYSLGEFYFDDEAELLSNLHLNDQESMVNNWLHFTPTSFQDKISVDQPIFKILFQILNASQRPKALRSIKYCSCLANEGDNSLDSQQFLQWIISQKVIKNAPPIVKFVRPISWQGAYGMADARDKFVDLYN
